This is an account of results in PubChem BioAssay AID1745853 (National Center for Advancing Translational Sciences (NCATS), 2022).

Some of the results follow. These are further read-outs of the screen, such as a control signal, another cell line or another target. No call is given for them.

Holding throughout (test): Primary Screen for Target Class Profiling of Small Molecule Inhibitors of Methyltransferases
The target of experiment [1] is Glycine N-methyltransferase (Homo sapiens) (UniProt Q14749). Particulars: purified enzyme, MTase-Glo SAH luminescence; measured here: GNMT inhibition; at 40 µM; stronger effect = lower value. The method, boiled down: (§1)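 Each enzyme was assayed with SAM and its substrate. SAH formation detected by MTase-Glo luminescence; single-point 40 uM screen[…].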
For experiment [2], the target named is Guanidinoacetate N-methyltransferase (Homo sapiens) (UniProt Q14353). Particulars: purified enzyme, MTase-Glo SAH luminescence; measured here: GAMT inhibition; at 40 µM; stronger effect = lower value. The method, boiled down:
as §1

Experiment [3] addresses Histamine N-methyltransferase (Homo sapiens) (UniProt P50135). As to conditions: purified enzyme, MTase-Glo SAH luminescence; measured here: HNMT inhibition; at 40 µM; stronger effect = lower value. The method, boiled down: as §1
For experiment [4], the target named is Nicotinamide N-methyltransferase (Homo sapiens) (UniProt P40261). As to conditions: purified enzyme, MTase-Glo SAH luminescence; measured here: NNMT inhibition; at 40 µM; stronger effect = lower value. The method, boiled down:
as §1

The target of experiment [5] is Phenylethanolamine N-methyltransferase (Homo sapiens) (UniProt P11086). As to conditions: purified enzyme, MTase-Glo SAH luminescence; measured here: PNMT inhibition; at 40 µM; stronger effect = lower value. In outline: as §1
% is set by controls: 0 for no effect and ±100 for the full control effect.

For the compound `CC(=O)Nc1sc2c(c1-c1nc3ccccc3s1)CNC2`, the activity change, negative = inhibition in experiment [1] is -1.77%; in experiment [2] it was -13.8%; in experiment [3], -10%; in experiment [4], -27.9%; in experiment [5], -10.4%.
In the same order, the values of `Cc1nc(C)c(C(=O)N2CCC3(CC2)NC(=O)CC3C(=O)O)s1` (stereo not drawn) are -0.04%, 0.957%, -1.71%, 0.518% and 4.09%.
As for `CN(C(=O)Cn1nc2n(C)c(=O)c3ccc(C(=O)NC4CCCC4)cc3n2c1=O)c1ccc(F)cc1`, the activity change, negative = inhibition in experiment [1] is -0.82%; in experiment [2], 2.85%; in experiment [3] it was -0.947%; in experiment [4] it was -9.37%; in experiment [5], -4.67%.
The matching figures for `CCCn1c(=O)c2ccc(C(=O)NC3CCCCC3)cc2n2c(SCC(=O)c3ccc(C)cc3)nnc12`: 6.16%, 0%, 8.46%, 7.77% and 6.36%.
In the same order, the values of `CC(CN1C(=O)c2cc3occc3n2CC1(C)C(=O)NC1CCCCC1)c1ccccc1` (stereo not drawn) are 5.72%, 0%, 8.24%, 13.1% and 7.09%.
As for `O=[S+]([O-])(c1cccs1)N1CCn2c(nnc2C2CC2)C1`, the activity change, negative = inhibition in experiment [1] was -6.5%; in experiment [2], -6.36%; in experiment [3], -1.61%; in experiment [4] it was -10%; in experiment [5], -18.6%.
The matching figures for `CC1CCCCC1NC(=O)C1(C)Cn2c(cc3occc32)C(=O)N1Cc1ccccc1` (stereo not drawn): 2.92%, 0.873%, 5.45%, -2.81% and 2.31%.
The matching figures for `COc1ccc2[nH]c(S(=O)Cc3ncc(C)c(OC)c3C)nc2c1` (stereo not drawn): 3.12%, -1.1%, 8.67%, -11.3% and -1.42%.
`CC1(C(=O)NC2CCCCC2)Cn2c(ccc2-c2ccccc2)C(=O)N1CCc1cccs1` (stereo not drawn): the activity change, negative = inhibition in experiment [1] came to 1.66%; in experiment [2], 5.29%; in experiment [3], 0.894%; in experiment [4] it was 0.585%; in experiment [5], 1.19%.
As for `CC(=O)NCCc1c[nH]c2ccc(O)cc12`, the activity change, negative = inhibition in experiment [1] is -0.42%; in experiment [2], 9.08%; in experiment [3], 5.46%; in experiment [4], -6.21%; in experiment [5] it was 7.66%.
As to `CC1(C)CC(=O)C2=C(C1)NC(=S)NC2c1cccc(O)c1` (stereo not drawn), the activity change, negative = inhibition is -12.3% in experiment [1]; -12.8% in experiment [2]; -2.22% in experiment [3]; -18.1% in experiment [4]; -4.92% in experiment [5].
For the compound `O=C(CC(c1ccccc1)c1ccccc1Cl)N1CCOCC1` (stereo not drawn), the activity change, negative = inhibition in experiment [1] was -5.48%; in experiment [2] it was -6.83%; in experiment [3], -4.99%; in experiment [4] it was -10.7%; in experiment [5], 0.944%.
Turning to `O=C(Cn1cccc1-c1nc(-c2ccccc2)no1)N1CCc2ccccc21`, the activity change, negative = inhibition in experiment [1] was -4.37%; in experiment [2], -4.97%; in experiment [3], -2.98%; in experiment [4], -6.06%; in experiment [5] it was -6.44%.
`O=C1OC(/C=C/c2ccccc2)=NC/1=C\c1cccnc1`: the activity change, negative = inhibition in experiment [2] was 3.09%; in experiment [4], -15.1%; in experiment [5] it was -5.66%.
In the case of `CCCSCCCN1C(=O)c2cc3sccc3n2CC1(C)C(=O)NC1CCCCCCC1` (stereo not drawn), the activity change, negative = inhibition amounted to 2.57% in experiment [1]; 0.63% in experiment [2]; 8.35% in experiment [3]; 1.12% in experiment [4]; 1.18% in experiment [5].
With `O=C(NCCc1nc2cccnc2n1-c1ccccc1)c1cccnc1`, the activity change, negative = inhibition came out at 14.5% in experiment [1]; 3.66% in experiment [2]; 12.9% in experiment [3]; 7.13% in experiment [4]; 10.6% in experiment [5].
For the compound `Cc1ccccc1N(C)C1CN([S+](=O)([O-])c2ccccc2)C1`, the activity change, negative = inhibition in experiment [1] was -5.01%; in experiment [2] it was 4.52%; in experiment [3], 0.581%; in experiment [4], -3.11%; in experiment [5] it was 2.17%.
`CCCCOc1ccc2c(-c3ccccc3)cc(=O)oc2c1`: the activity change, negative = inhibition in experiment [1] is -4.05%; in experiment [2] it was 0%; in experiment [3], 7.06%; in experiment [4] it was -0.424%; in experiment [5], -8.54%.
In the same order, the values of `Cc1ccccc1NC(=O)N1CCn2cccc2C1Cc1ccccc1` (stereo not drawn) are -5.57%, 0%, -7.47%, -3.36% and -3.73%.
On to `COc1ccc(-c2cnc(NC(=O)Cc3ccc(F)cc3)c3c2CCO3)cn1`, for which the activity change, negative = inhibition in experiment [1] is -7.98%; in experiment [2], -1.16%; in experiment [3], -9.2%; in experiment [4], -6.21%; in experiment [5], 4.03%.
